These are yes or no findings as the source states them, for the method shown. For some assays here: In cells and extracts the contact can be indirect. Some binding calls cover weakened binding; strength is not graded here.

Protein sequences, listed by entry. Tags and fused reporters are not part of them. Lines headed by an entry give the natural chain unless they say otherwise; changes in a name come on top. Chains listed by the source or under a name are the forms on record and can include a tag or linker. Residues count along the entry.
UniProt P49792: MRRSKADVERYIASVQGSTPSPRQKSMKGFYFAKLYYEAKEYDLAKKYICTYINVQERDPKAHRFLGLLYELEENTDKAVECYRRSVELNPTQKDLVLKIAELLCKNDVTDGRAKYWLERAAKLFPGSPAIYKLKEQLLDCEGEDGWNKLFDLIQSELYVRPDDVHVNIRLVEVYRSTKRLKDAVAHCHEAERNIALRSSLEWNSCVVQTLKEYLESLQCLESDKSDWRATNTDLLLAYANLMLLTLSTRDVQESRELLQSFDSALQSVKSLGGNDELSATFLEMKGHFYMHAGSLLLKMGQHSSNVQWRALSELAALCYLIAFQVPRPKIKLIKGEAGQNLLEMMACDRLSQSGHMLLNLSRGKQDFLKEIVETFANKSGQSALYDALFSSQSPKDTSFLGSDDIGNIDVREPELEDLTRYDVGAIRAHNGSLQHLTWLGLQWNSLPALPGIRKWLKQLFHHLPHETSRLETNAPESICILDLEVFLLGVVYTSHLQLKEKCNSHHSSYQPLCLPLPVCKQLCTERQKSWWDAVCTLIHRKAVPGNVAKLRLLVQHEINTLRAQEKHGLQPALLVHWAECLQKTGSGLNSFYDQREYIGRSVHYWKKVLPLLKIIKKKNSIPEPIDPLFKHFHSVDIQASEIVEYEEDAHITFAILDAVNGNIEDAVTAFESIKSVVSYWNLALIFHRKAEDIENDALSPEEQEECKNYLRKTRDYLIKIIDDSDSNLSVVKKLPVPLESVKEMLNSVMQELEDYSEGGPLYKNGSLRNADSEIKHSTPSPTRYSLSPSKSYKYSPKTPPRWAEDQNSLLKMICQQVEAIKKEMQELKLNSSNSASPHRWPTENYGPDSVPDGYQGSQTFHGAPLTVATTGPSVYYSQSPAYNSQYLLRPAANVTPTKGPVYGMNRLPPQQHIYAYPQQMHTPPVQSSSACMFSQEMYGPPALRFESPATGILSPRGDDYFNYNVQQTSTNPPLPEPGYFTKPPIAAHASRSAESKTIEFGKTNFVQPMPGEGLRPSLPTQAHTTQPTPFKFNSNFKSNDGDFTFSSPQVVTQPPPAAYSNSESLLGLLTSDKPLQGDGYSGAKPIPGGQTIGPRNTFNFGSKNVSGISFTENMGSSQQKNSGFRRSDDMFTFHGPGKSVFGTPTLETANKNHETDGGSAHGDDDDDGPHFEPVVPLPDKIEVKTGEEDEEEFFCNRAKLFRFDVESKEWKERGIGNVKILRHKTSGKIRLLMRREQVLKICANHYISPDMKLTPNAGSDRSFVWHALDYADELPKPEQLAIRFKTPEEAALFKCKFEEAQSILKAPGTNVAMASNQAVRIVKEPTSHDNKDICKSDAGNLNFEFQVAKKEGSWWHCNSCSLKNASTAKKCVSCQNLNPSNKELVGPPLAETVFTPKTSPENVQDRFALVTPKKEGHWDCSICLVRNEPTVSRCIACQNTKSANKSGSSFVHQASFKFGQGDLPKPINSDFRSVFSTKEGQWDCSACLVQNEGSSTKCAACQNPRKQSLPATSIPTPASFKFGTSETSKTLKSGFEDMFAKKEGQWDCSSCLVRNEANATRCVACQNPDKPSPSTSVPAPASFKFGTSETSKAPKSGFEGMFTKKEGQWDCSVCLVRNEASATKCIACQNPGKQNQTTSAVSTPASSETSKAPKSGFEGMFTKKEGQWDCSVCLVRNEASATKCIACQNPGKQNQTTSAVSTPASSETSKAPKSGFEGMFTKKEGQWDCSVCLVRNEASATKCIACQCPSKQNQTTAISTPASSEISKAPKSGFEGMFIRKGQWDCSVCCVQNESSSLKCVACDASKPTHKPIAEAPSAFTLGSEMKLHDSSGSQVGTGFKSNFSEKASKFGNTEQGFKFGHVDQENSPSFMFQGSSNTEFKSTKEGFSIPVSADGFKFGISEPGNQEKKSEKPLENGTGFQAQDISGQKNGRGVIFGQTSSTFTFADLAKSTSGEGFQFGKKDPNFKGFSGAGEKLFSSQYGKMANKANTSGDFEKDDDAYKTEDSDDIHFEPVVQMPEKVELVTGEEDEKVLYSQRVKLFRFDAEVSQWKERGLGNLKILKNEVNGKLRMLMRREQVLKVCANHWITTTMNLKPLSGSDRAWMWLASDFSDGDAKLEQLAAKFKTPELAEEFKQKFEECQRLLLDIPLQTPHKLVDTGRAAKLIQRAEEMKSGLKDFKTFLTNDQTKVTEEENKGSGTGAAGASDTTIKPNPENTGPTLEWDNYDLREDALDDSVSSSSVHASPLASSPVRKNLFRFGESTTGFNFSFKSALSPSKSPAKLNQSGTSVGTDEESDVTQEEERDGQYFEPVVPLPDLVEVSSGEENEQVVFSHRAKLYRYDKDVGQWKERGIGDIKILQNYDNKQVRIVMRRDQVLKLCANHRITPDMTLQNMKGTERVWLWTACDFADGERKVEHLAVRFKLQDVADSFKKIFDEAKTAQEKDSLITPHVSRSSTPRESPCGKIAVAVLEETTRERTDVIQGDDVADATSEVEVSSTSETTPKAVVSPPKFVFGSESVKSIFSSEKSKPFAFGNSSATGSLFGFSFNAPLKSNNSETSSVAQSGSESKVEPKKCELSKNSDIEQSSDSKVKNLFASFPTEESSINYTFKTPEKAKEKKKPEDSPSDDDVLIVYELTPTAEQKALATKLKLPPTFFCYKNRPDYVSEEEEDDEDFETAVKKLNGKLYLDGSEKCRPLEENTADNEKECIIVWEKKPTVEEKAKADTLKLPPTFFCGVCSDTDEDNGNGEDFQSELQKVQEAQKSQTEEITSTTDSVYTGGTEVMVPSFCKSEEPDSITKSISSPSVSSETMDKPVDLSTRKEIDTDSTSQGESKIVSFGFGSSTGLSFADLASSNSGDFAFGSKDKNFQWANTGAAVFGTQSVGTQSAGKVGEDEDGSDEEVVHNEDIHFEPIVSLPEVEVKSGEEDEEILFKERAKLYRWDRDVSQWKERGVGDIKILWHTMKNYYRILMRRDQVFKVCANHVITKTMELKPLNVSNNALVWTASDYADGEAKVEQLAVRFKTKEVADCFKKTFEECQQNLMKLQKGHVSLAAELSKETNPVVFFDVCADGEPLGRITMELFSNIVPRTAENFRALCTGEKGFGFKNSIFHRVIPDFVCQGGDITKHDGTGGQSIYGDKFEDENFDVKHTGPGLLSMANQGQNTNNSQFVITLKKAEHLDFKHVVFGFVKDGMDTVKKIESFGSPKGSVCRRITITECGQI
GST-tagged RanBP2 fragment (BICD2 binding domain, aa 2148–2240), on glutathione Sepharose: residues 2148-2240 of P49792

Assay [1] addresses GST-His6-BICD2-CT (aa 630–820) wildtype (mouse) (UniProt Q921C5). Description: pull-down; GST-His6-BICD2-CT WT or mutant on glutathione magnetic beads, incubated 3 hrs at 4°C with untransfected or GFP-Nesprin-2 expressing HeLaM lysate (RIPA buffer); immunoblot with anti-RanBP2, anti-GFP and anti-GST, signal ratio normalised to wildtype; only the target purified. In general terms: Immunoblotting shows a protein as a band on a membrane.

The target of assay [2] is GST-His6-BICD2-CT (aa 630–820) T699M (mouse) (UniProt Q921C5). The description is as above.
Assay [3] deals with GST-His6-BICD2-CT (aa 630–820) L679R (mouse) (UniProt Q921C5). The assay is described as above.
The target of assay [4] is GST-His6-BICD2-CT (aa 630–820) K785M (mouse) (UniProt Q921C5). The description is as above.
The target of assay [5] is GST-tagged RanBP2 fragment (BICD2 binding domain, aa 2148–2240), on glutathione Sepharose (human) (UniProt P49792). As to the kind of experiment: pull-down; GST-RanBP2 or GST-Nesprin-2 held on glutathione Sepharose (not eluted), purified His6-tagged BICD2 fragment added to the column, washed, eluted; Coomassie-stained SDS-PAGE, bands quantified (3 sets); both purified.

On to “RanBP2, endogenous in HeLaM cells (from UniProt P49792 1-3224)”, for which the binding result is on record as “binds” in assay [1], “binds” in assay [2], “binds” in assay [3] and “binds weakly” in assay [4].

As to “BICD2 aa 750–800 (from UniProt Q921C5-1 750-800) (domain or fragment)”, the binding result in assay [5] is listed as “no binding”.
